“And” between values parts separate entries of the source, which are not always exact repeats. Equal values may be shown once. The whole screen tested about 420,000 compounds, of which about 64,000 (15%) were called active. Inconclusive results, whose numbers are uncertain, are shown with a selection of clear calls. Calls come from the whole dose curve; as a rule, active = well fitted inhibition curve with a large enough effect; inconclusive = small, poorly fitted or top-dose-only effect; inactive = flat fitted curve, though single readings scatter. No potency is given beside an inconclusive call; the fits are too rough. Peptide text beside a SMILES is read from it.
Test: qHTS for Inhibitors of human tyrosyl-DNA phosphodiesterase 1 (TDP1): qHTS in cells in absence of CPT; note: nearly all actives have a fitted effect of over 55% in size
Details: DT40 Tdp1-/- hTDP1 cells, no CPT, ATP luminescence, 48 h; activity change, negative = growth inhibition: at 46.2 µM (top of the series) unless noted
Outline: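 Stably hTDP1-transfected Tdp1-null chicken DT40 cells were treated with library compounds minus camptothecin and grown for at least 48 hr at 37 °C, after which cellular ATP was quantified by luminescence.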
% is set by controls: 0 for no effect and ±100 for the full control effect; potency is the fitted concentration of half-maximal effect; tags give direction and shape of the fitted curve.

| Compound | activity change, negative = growth inhibition | Potency |
| --- | --- | --- |
| Cc1cc(C)nc(SCC(=O)Nc2ccc(S(=O)(=O)NCCO)cc2)n1 | inactive: -16.8% | – |
| NC(=O)C1CCN(C(=O)c2cc3ccccc3cc2O)CC1 | inactive: -15.4% | – |
| CC(C)C[C@H](NC(=O)C1CCN(C(=O)[C@H](Cc2ccccc2)NC(=O)OC(C)(C)C)CC1)C(=O)O | inactive: 34.7% | – |
| CN1C(=O)c2ccccc2C(C(=O)NCc2ccco2)C1c1c[nH]c2ccccc12 (stereo not drawn) | – | inconclusive [inhibitor, partial curve] |
| COC(=O)Nc1nc2ccc(Sc3ccccc3)cc2[nH]1 | – | active: 517 nM and active: 286 nM |
| CCc1c(C)nc2ncnn2c1N1CCC(C(=O)NCc2ccc3c(c2)OCO3)CC1 | – | inconclusive [inhibitor, single point] |
| O=S(=O)(NCc1csc(-c2cccnc2)n1)c1cccs1 | – | inconclusive [inhibitor, single point] |
| COC(=O)C1=C(\O)CCCC/C=C\1C(=O)O | inactive: -0.24% | – |
| Cc1cc2ccccn2c1C(=S)NC(=O)c1ccccc1 | – | inconclusive [inhibitor, single point] |
| Cc1ccc(NC(=O)NC2CC(=O)N(c3ccc4c(c3)OCCO4)C2)cc1F (stereo not drawn) | – | inconclusive [inhibitor, single point] |
| CC(=O)NC(c1ccccc1)c1nc(-c2cc3ccccc3o2)cs1 (stereo not drawn) | – | inconclusive [inhibitor, single point] |
| CCN1CCN(c2cc3nc(C)n(Cc4ccccc4)c(=O)c3cc2NC(=O)c2ccccc2F)CC1 | – | inconclusive [inhibitor, full curve, poor fit] |
| Cn1c(CN2CCCC2)nc2cc(NC(=O)COc3ccc(Cl)cc3)ccc21 | – | inconclusive [inhibitor, partial curve] |
| COCCn1c(=O)[nH]c2cc(C(=O)NCCN3CCN(c4ccccc4F)CC3)ccc2c1=O | inconclusive: -33% [inhibitor] | – |
| COc1cccc(-c2nc(CS(=O)(=O)CC(=O)Nc3ccccc3Br)c(C)o2)c1 | – | inconclusive [inhibitor, single point] |
| COc1ccc(-c2noc(N3CCCC(C(=O)Nc4ccccc4F)C3)n2)cc1 (stereo not drawn) | inconclusive: -30.7% [inhibitor] | – |
| Cc1ccc(N=C2NC(=O)/C(=C\c3ccsc3)S2)c(C)c1 | – | inconclusive [inhibitor, single point] |
| CC(C)(C)c1ccc2oc(=O)cc(-c3cccc(-c4ccc(C(F)(F)F)cc4)c3)c2c1 | – | inconclusive [inhibitor, single point] |
| COC(CNC(=O)C(=O)Nc1ccc2c(c1)N(S(=O)(=O)c1cccs1)CCC2)OC | – | inconclusive [inhibitor, single point] |
| CCNc1oc(-c2ccc(COc3ccc(Cl)cc3)o2)nc1C#N | – | inconclusive [inhibitor, single point] |
| CN=C(Nc1cc(Cl)ccc1Cl)SC1CC(=O)N(c2ccc(C(=O)OC)cc2)C1=O (stereo not drawn) | – | inconclusive [inhibitor, single point] |
| O=C(CSc1nc2ccccc2c(=O)n1CCCN1CCOCC1)N1CCN(c2ccccc2)CC1 | – | inconclusive [inhibitor, single point] |
| CCCCOc1ccc(CNC(=O)Cc2ccc(NC(=O)N3CCSc4ncccc43)cc2)cc1 | – | inconclusive [inhibitor, single point] |

| Compound | activity change, negative = growth inhibition | Potency |
| --- | --- | --- |
| CCC(C)[C@H]1CNCCN1CCc1cccc2ccccc12 (stereo partly drawn) | – | inconclusive [inhibitor, single point] |
| O=C(CSC1=Nc2ccccc2N=C(c2ccc(F)cc2)C1)NCc1ccccc1Cl | – | inconclusive [inhibitor, single point] |
| CCOc1ccc(CCNC(=O)CCOc2cc(C)ccc2C)cc1OCC | – | active: 18.4 µM |
| O=C(COC(=O)c1c(F)cccc1Cl)NCC1CCCCC1 | inactive: -14.5% | – |
| COC(=O)c1sccc1NC(=O)CSCC(=O)O | inactive: 1.48% | – |
| COC(=O)C1=C/CCCN(C(c2ccccc2)c2ccccc2)/C=C\1C(=O)OC | inactive: -84.7% | – |
| O=C(Nc1sc2c(c1C(=O)O)CCCCC2)c1ccccc1F | – | inconclusive [inhibitor, single point] |
| COc1ccc(OCC(=O)NNC(=O)c2nn(C)c(=O)c3ccccc23)cc1 | inactive: -0.769% | – |
| CCOc1ccc(CNC(=O)c2sc3ncnc(N(C)C4CCCCC4)c3c2C)cc1 | – | inconclusive [inhibitor, single point] |
| CC1(C)CC(=O)c2cc(N=C/C(C(=O)c3ccccc3)=C(\O)c3ccccc3)c(=O)oc2C1 | – | inconclusive [inhibitor, single point] |
| COc1cc(N(C)C)ccc1C=c1c2ccccc2n2c1cc(-c1ccccc1)[n+]2C | – | active: 0.366 µM |
| NC(=O)c1ccccc1NC(=O)Cn1nc(Cc2cccnc2)c2ccccc2c1=O | – | inconclusive [inhibitor, single point] |
| CN(C)c1cc2c(c(N(C)C)c1)C(=O)c1ccccc1C2=O | – | inconclusive [inhibitor, single point] |
| O=C(O)CC1NC(=S)N(Cc2ccccc2)C1=O (stereo not drawn) | – | active: 18.4 µM |
| O=C(Nc1ccncc1)c1ccc2c(c1)OCCO2 | – | inconclusive [inhibitor, single point] |
| O=C1CS(=O)(=O)N(Cc2cccc(F)c2)c2ccc(Br)cc21 | – | inconclusive [inhibitor, single point] |
| C/C(=N/NC(=O)c1ccccn1)c1c[nH]c2ccccc12 | – | inconclusive [inhibitor, single point] |
| Cn1ccc2c(N3CCCC3)cc3c(c21)C1CCC3C1 (stereo not drawn) | – | active: 14.6 µM |
| CCn1cc(C(=O)NCc2ccccc2Cl)cn1 | inactive: -23.1% | – |
| COc1ccc(S(=O)(=O)N2CCN(CC(=O)Nc3ccc(Cl)c(C(F)(F)F)c3)CC2)cc1 | – | active: 8.2 µM |
| O=C(CNC(=O)OCc1ccccc1)NC(Cc1cnc[nH]1)C(=O)O (stereo not drawn) (HELM PEPTIDE1{[O=C(OCc1ccccc1)[*:2]].G.[O=C(O)C(Cc1c[nH]cn1)N[*:1]]}$$$$V2.0) | – | active: 16.4 µM |
| Cc1ccc(Cl)cc1NC(=O)CSc1nc2c(c(=O)[nH]1)CN(Cc1ccccc1)CC2 | – | inconclusive [inhibitor, single point] |
| O=S(=O)(c1ccccc1)N1CCC2(CCCN(Cc3nccs3)C2)CC1 | – | inconclusive [inhibitor, single point] |

| Compound | activity change, negative = growth inhibition | Potency |
| --- | --- | --- |
| O=C(Nc1ccc(Cc2ccncc2)cc1)c1cccc([N+](=O)[O-])c1 | – | inconclusive [inhibitor, single point] |
| C=CCn1c2ccccc2c(=O)c2cc(C#CC3(O)CCCCC3)ccc21 | – | active: 18.4 µM |
| CCOC(=O)C(C)n1nc(C)c2sc3ccccc3c2c1=O (stereo not drawn) | – | inconclusive [inhibitor, single point] |
| COc1ccc(C(=O)CSc2nnc(Cn3nnc4ccccc43)n2C)cc1 | inconclusive: -31.1% [inhibitor] | – |
| COc1ccc(C(=O)Oc2cc(-c3ccc4c(c3)OCO4)cc(=O)c3c(C)oc(C)c23)cc1 | inactive: -29.9% | – |
| COC(=O)[C@@H]1CCCN1Cc1ccc2c(c1)CN(Cc1coc3ccc(C)cc3c1=O)CCO2 | – | inconclusive [inhibitor, single point] |
| Cc1cc2cc(C#N)c(SCC(=O)Nc3nonc3C)nc2cc1C | – | inconclusive [inhibitor, single point] |
| O=C(CSc1ncc(CO)n1Cc1ccc(Cl)cc1)NCc1ccc(F)cc1 | – | inconclusive [inhibitor, single point] |
| CCN1CCN(c2cc(C)c3cc(NC(=S)N4CCN(c5ccccc5F)CC4)ccc3n2)CC1 | inactive: -0.695% | – |
| Cc1ccc(SC2=C[C@@]3(O)CC[C@@H](O)[C@@](Sc4ccc(C)cc4)(C2=O)[C@H]3O)cc1 | – | inconclusive [inhibitor, single point] |
| Cc1cc(SCC(=O)NCC2CCCO2)nc2ccccc12 (stereo not drawn) | inactive: 2% | – |
| Cc1cc(S(=O)(=O)N2CCCOC2CNC(=O)C(=O)NCCc2ccco2)ccc1F (stereo not drawn) | inactive: 2.04% | – |
| Cc1cc(C(=O)N/N=C/c2cc([N+](=O)[O-])ccc2O)c2ccccc2n1 | – | active: 4.61 µM |
| COc1cc(SC)ccc1C(=O)N(C)CC(=O)Nc1cccc2ccccc12 | – | inconclusive [inhibitor, partial curve, poor fit] |
| O=C(CCn1c(=O)c2ccccc2n(Cc2ccccc2)c1=O)NCc1ccc2c(c1)OCO2 | inactive: -13.3% | – |
| CCCNC(=S)N1CCN(c2nc(-c3cccc(OC)c3)cs2)CC1 | – | inconclusive [inhibitor, single point] |
| CCOc1ccc(NC(=O)CN2C(=O)C3CCCN3C2=O)cc1 (stereo not drawn) | inactive: -10.2% | – |
| COc1ccccc1NC(=S)N(Cc1ccco1)Cc1cc2ccc(C)c(C)c2[nH]c1=O | – | active: 0.58 µM |
| CC(C)(C)C1CCC(C(=O)Nc2nccs2)CC1 (stereo not drawn) | – | active: 23.1 µM |
| CCOc1ccc(NC(=O)Cn2cc(C(C)=O)c3ccccc32)cc1 | – | inconclusive [inhibitor, partial curve] |
| CCOC(=O)C(NC(=O)c1cccc(Cl)c1)(Nc1sc2c(c1C(N)=O)CCC2)C(F)(F)F (stereo not drawn) | – | inconclusive [inhibitor, single point] |
| C[C@H](O)[C@@H]1C(=O)N2CCc3ccc(-c4cccc(F)c4)cc3[C@@H]2C[C@@H]1N(C)S(=O)(=O)c1ccccc1 | – | inconclusive [inhibitor, single point] |
